From PubChem BioAssay AID686978 (National Center for Advancing Translational Sciences (NCATS), 2013)
Several values for one entry are separate records, joined by “and”; a condition that tells them apart may be missing. Identical values can stand only once. The campaign covered roughly 420,000 compounds. About 64,000 (15%) were called active. This list was built around the results that the source calls inconclusive (neither active nor inactive); the mix of calls is not that of the screen. Calls follow the shape of the dose curve; as a rule, active = well fitted inhibition curve with a large enough effect; inconclusive = small, poorly fitted or top-dose-only effect; inactive = flat fitted curve, though single readings scatter. Potencies of inconclusive entries are doubtful fits and often do not repeat.

assay: qHTS for Inhibitors of human tyrosyl-DNA phosphodiesterase 1 (TDP1): qHTS in cells in absence of CPT; details: DT40 Tdp1-/- hTDP1 cells, no CPT, ATP luminescence, 48 h; activity change, negative = growth inhibition: at 46.2 µM (top of the series); also: nearly all actives have a fitted effect of over 55% in size
Summary of the method: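 Growth of hTDP1-complemented DT40 Tdp1-knockout cells is measured by ATP luminescence after at least 48 hr compound exposure at 37 °C, with DMSO substituting for the 20 nM CPT used in the parallel screen.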
% is scaled to controls: 0 for no effect and ±100 for the full control effect; potency is read from the fitted curve at half-maximal effect; tags tell the direction and shape of the fitted curve.

Row | SMILES | Potency | activity change, negative = growth inhibition
1 | c1ccc2c(c1)OCCOCCOCCOCCOCCOc1ccccc1OCCOCCOCCO2 | active: 14.6 µM | 
2 | CCCC(=O)Nc1ccc(-c2csc(-c3cccnc3)n2)cc1 | active: 16.4 µM | 
3 | O=c1[nH]c(/C=C/c2ccccc2)c([N+](=O)[O-])c(=O)[nH]1 | inactive | 
4 | Cc1ccc(C)c(CN2C(=O)C(=O)c3ccccc32)c1 | active: 0.92 µM | 
5 | COc1ccc(OC(C)C(=O)NC2CCCCCC2)cc1 (stereo not given) | inactive | 
6 | CCCOc1ccc(Oc2nc(-c3ccncc3)nc3ccccc23)cc1 | inconclusive: 29.1 µM [inhibitor, single point] | 
7 | CCCC(=O)c1cc(F)c(N2CCOCC2)cc1C | inactive | 
8 | Cc1ccc(S(=O)(=O)c2nc(-c3ccccc3)oc2NCc2cccnc2)cc1 | inconclusive: 29.1 µM [inhibitor, single point] | 
9 | CCCC(CCC(=O)Nc1ccn(-c2ccccc2)n1)C(=O)O (stereo not given) |  | inconclusive: -32.7% [inhibitor]
10 | CCOC(=O)C1=C(C)C(c2ccc(OC)cc2)NC(=O)N1 (stereo not given) | inactive | 
11 | CC1(c2ccc(Cl)c(Cl)c2)NC(=S)N2C1NC(=S)N2c1ccccc1 (stereo not given) | inconclusive: 29.1 µM [inhibitor, single point] | 
12 | COCc1cccc(-c2csc(C(C)(O)c3cccc(OC)c3)n2)c1 (stereo not given) | inconclusive: 14.6 µM [inhibitor, single point] | 
13 | COc1ccc(S(=O)(=O)N2CCCCC2c2cc(C(=O)NCc3cccnc3)no2)cc1 (stereo not given) | inconclusive: 16.4 µM [inhibitor, single point] | 
14 | COc1ccc(CCC(=O)N2CCc3c([nH]c4ccccc34)C2c2ccc(F)cc2)cc1 (stereo not given) | inconclusive: 23.1 µM [inhibitor, single point] | 
15 | COc1ccc(-c2cc(C(=O)Nc3cccnc3Cl)no2)cc1OC | inconclusive: 5.17 µM [inhibitor, full curve, poor fit] | 
16 | CCOc1ccccc1N1CCN(Cc2cc3c(cc2[N+](=O)[O-])OCO3)CC1 | inconclusive: 25.9 µM [inhibitor, single point] | 
17 | COc1ccc(C)c2sc(N(CCN(C)C)C(=O)c3ccc4ccccc4c3)nc12 | inconclusive: 29.1 µM [inhibitor, single point] | 
18 | CC(OC(=O)CCN=C1NS(=O)(=O)c2ccccc21)C(=O)NCc1ccccc1 (stereo not given) | inconclusive: 16.4 µM [inhibitor, partial curve] | 
19 | Cc1ccc2onc(CNC(=O)N3CCN(c4cccc(C)c4C)CC3)c2c1 | inconclusive: 23.1 µM [inhibitor, single point] | 
20 | COC(=O)C1Cc2c([nH]c3ccccc23)CN1 (stereo not given) | inconclusive: 29.1 µM [inhibitor, single point] | 
21 | O=C(NCCc1ccccc1)c1ccc(CS(=O)(=O)c2ccc(Br)cc2)o1 | inconclusive: 23.1 µM [inhibitor, single point] and inconclusive: 9.2 µM [inhibitor, partial curve, poor fit] | 
22 | CC[n+]1c(/C=C/c2ccc(N(C)C)cc2)ccc2ccccc21 | active: 0.146 µM | 
23 | O=C(Nc1cccc(Cl)c1)c1csc(-c2ccccc2)n1 | inactive | 
24 | Cc1ccc(S(=O)(=O)NCc2n[nH]c(=S)n2C)cc1 | inactive | 

Row | SMILES | Potency | activity change, negative = growth inhibition
25 | CN(C)/C=N/C(=S)Nc1ccc(Br)cc1F |  | inconclusive: -27.9% [inhibitor]
26 | CN1CCN(c2nc(-c3ccc(Cl)cc3Cl)nc3ccccc23)CC1 | inconclusive: 16.4 µM [inhibitor, single point] | 
27 | CCOC(=O)N1CCC(N2CCOc3ccc(CN4CCC(O)(c5cccnc5)CC4)cc3C2)CC1 | inactive | 
28 | Cc1ccc(C2(c3ccccc3)NC(=O)N(CC(=O)NC3CCCCC3)C2=O)cc1C (stereo not given) | active: 18.4 µM | 
29 | CC(=O)OC1CCC2(C)C(CCC3C4CC=C(C(C)=O)C4(C)OC(=O)CC32)C1 (stereo not given) | active: 2.06 µM | 
30 | CC(C)=CCN1CCN(Cc2ccoc2)CC1CCO (stereo not given) | inconclusive: 7.31 µM [inhibitor, partial curve, poor fit] | 
31 | COc1ccc(S(=O)(=O)N2CCc3ccccc32)cc1C(=O)NCc1ccco1 | inconclusive: 29.1 µM [inhibitor, single point] | 
32 | CCOc1ccc2[nH]c(C)cc(=O)c2c1 | inactive | 
33 | CCc1cccc(NC(=O)Cc2cn(C)c3ccccc23)c1 | inconclusive: 29.1 µM [inhibitor, single point] | 
34 | Cc1ccc2c(c1)/C(=C/c1ccccc1C)C(=O)N2 | inconclusive: 23.1 µM [inhibitor, partial curve] | 
35 | Cc1cc(S(=O)(=O)N(Cc2cccs2)Cc2ccccc2F)ccc1-n1cnnn1 | inconclusive: 20.6 µM [inhibitor, single point] | 
36 | Cc1cc(C2=NNC(=NC3CCCCC3)SC2)c(C)n1-c1c(C)n(C)n(-c2ccccc2)c1=O | inconclusive: 29.1 µM [inhibitor, single point] | 
37 | Cc1ccc(C(=O)NCC2CCCN2S(=O)(=O)c2ccc(C)cc2)cc1 (stereo not given) | inconclusive: 20.6 µM [inhibitor, single point] | 
38 | COCCn1c(C)cc(C(=O)COC(=O)c2[nH]c(C)c(C(C)=O)c2C)c1C | inconclusive: 29.1 µM [inhibitor, single point] | 
39 | Cn1cncc1C#Cc1c(-c2ccc(S(C)(=O)=O)cc2)sc2ccccc12 | active: 11.6 µM | 
40 | CCCc1nc2ccccc2c(=O)n1NC(=O)c1c(O)c2ccccc2n(C)c1=O | inconclusive: 20.6 µM [inhibitor, single point] | 
41 | CCOC(=O)c1c(C)nc2c3ccccc3ccn12 | inactive | 
42 | CCCc1c(C(=O)NNc2ccccc2OC)cnn1-c1ccccc1 | inactive | 
43 | COC(=O)[C@@]12C[C@@H](CC(=O)NCc3ccc(OC)c(OC)c3)C(=O)N(Cc3cccc4ccccc34)C1=CCC(C)(C)C2 | inconclusive: 18.4 µM [inhibitor, single point] | 
44 | O=c1[nH]c(C2CCCN(S(=O)(=O)c3ccccc3)C2)nc2c1nnn2Cc1cccc(Cl)c1 (stereo not given) | inactive | 
45 | Cc1nc2sc(C(N)=O)c(N)c2c2c1CCCC2 | inconclusive: 9.2 µM [inhibitor, partial curve] | 
46 | C[C@H]1O[C@H]1P(=O)(O)O | inactive | 
47 | CCOc1ccc(S(=O)(=O)N2CCCCC2)cc1NC(=O)C1=COCCO1 | inconclusive: 9.2 µM [inhibitor, partial curve] | 
48 | COc1ccc(S(=O)(=O)N(CC(=O)N2CCN(C)CC2)c2ccc(C)cc2)cc1OC | inactive | 

Row | SMILES | Potency | activity change, negative = growth inhibition
49 | O=C(COC(=O)c1cncc(Br)c1)NCc1ccc2c(c1)OCO2 | inactive | 
50 | CC1(C(=O)NCCC(F)(F)F)Cc2c(-c3cccc(C(F)(F)F)c3)ccnc2O1 (stereo not given) | active: 3.26 µM | 
51 | O=[N+]([O-])c1ccc(OCCCCCN2CCOCC2)cc1 | inconclusive: 32.6 µM [inhibitor, single point] | 
52 | NCc1cccc(CNc2ccc([N+](=O)[O-])cc2C(N)=O)c1 | inconclusive: 25.9 µM [inhibitor, single point] | 
53 | Cc1ncc(CO)c(/C=N/NC(=O)c2ccccc2Br)c1O | inconclusive: 29.1 µM [inhibitor, single point] | 
54 | COc1ccc(NC2CCCN(C(=O)COc3ccc(C(C)=O)cc3)C2)cc1 (stereo not given) | inactive | 
55 | CCC(=O)N1c2ccccc2CC1C(=O)NCc1ccc(OC(C)C)cc1 (stereo not given) | inconclusive: 23.1 µM [inhibitor, single point] | 
56 | Cc1nc(SCC(=O)OCc2ccccc2)c(C#N)c(-c2ccccc2)c1C(=O)Nc1ccccc1 | inconclusive: 14.6 µM [inhibitor, partial curve] | 
57 | COc1cc(-c2ccc(N3C(c4ccsc4)=Cc4ccc(F)cc4C3c3c[nH]c4ccc(C#N)cc34)cc2)cc(OC)c1OC (stereo not given) | inconclusive: 25.9 µM [inhibitor, single point] | 
58 | COC(=O)[C@@]1(Cc2ccc(F)cc2)[C@H]2c3cc(C(=O)N4CCCC4)n(Cc4ccccc4)c3C[C@H]2CN1C(=O)c1ccccc1 | active: 23.1 µM | 
59 | Cc1cccc(CCNC(=O)c2sc3nc4n(c(=O)c3c2C)CCCC4)c1 | inconclusive: 20.6 µM [inhibitor, single point] | 
60 | Cc1ccc2oc(C(=O)NCCC3CCCCO3)c(C)c2c1 (stereo not given) | inconclusive: 23.1 µM [inhibitor, single point] | 
61 | C=CCn1c(SCC#N)nc2cc(Cl)ccc2c1=O | active: 12.6 µM | 
62 | COc1ccccc1N1CCN(CCN2C(=O)CC(=C3c4ccccc4-c4ccccc43)C2=O)CC1 | inconclusive: 20.6 µM [inhibitor, single point] | 
63 | O=C(Nc1nccs1)[C@@H]1CC=C[C@@H]2CCN(Cc3ccccc3)C(=O)[C@@H]21 | inconclusive: 35.5 µM [inhibitor, single point] | 
64 | COc1ccc(CN2CCN(C(=O)c3ccc4nc(N5CCOCC5)sc4c3)CC2)c(OC)c1OC |  | inconclusive: -30% [inhibitor]
65 | CCN(CC)S(=O)(=O)c1ccc2nc(CCl)[nH]c2c1 | inconclusive: 0.651 µM [inhibitor, full curve, poor fit] | 
66 | Cc1cc(C)n2nc(SCC(=O)NC(=O)c3ccccc3Cl)nc2n1 | inactive | 
67 | COc1ccc(C2CC(=O)Nc3c2c(C)nn3-c2nncc(-c3ccc(C)cc3)n2)c(OC)c1OC (stereo not given) | active: 6.51 µM | 
68 | Cc1cccc(NS(=O)(=O)c2ccc(C)c(C(=O)NCc3ccccn3)c2)c1 | inconclusive: 16.4 µM [inhibitor, partial curve] | 
69 | O=C(CN1C2CCCC1CC(NC(=O)C1CCCCC1)C2)Nc1ccccc1 (stereo not given) | inconclusive: 29.1 µM [inhibitor, single point] | 
70 | CCOc1ccc(-c2nc(SCC(=O)Nc3ccc4c(c3)OCO4)c(-c3ccc(F)cc3)[nH]2)cc1 | inconclusive: 2.91 µM [inhibitor, partial curve] | 
